# According to the supplement of paper PMC8728848:
# This is one part of the list.
# Columns and labels:
# Assay in all cases: glycan array binding signal (z-score within array); higher = stronger binding
# Conditions in all cases: glycan notation: IUPAC condensed, linker removed
# [1] = target: GalNAc(b1-3)GalNAc
# How it was run: (§1)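 From the Consortium for Functional Glycomics database, 3228 arrays were curated, keeping only those whose protein sequence was available. Binding is given as a within-array Z-score averaged across arrays sharing a protein sequence and across linkers. Negative Z-scores can be read as non-binding.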
# [2] = target: GalNAc(b1-4)GlcNAc
# How it was run: as §1
# [3] = target: Glc(a1-4)Glc
# How it was run: as §1
# [4] = target: Glc(a1-6)Glc(a1-6)Glc
# How it was run: as §1
# [5] = target: Glc(b1-4)Glc
# How it was run: as §1
# [6] = target: Glc(b1-6)Glc
# How it was run: as §1
# [7] = target: GlcA(b1-3)Gal
# How it was run: as §1
# [8] = target: GlcA(b1-3)GlcNAc
# How it was run: as §1
# [9] = target: GlcA(b1-6)Gal
# How it was run: as §1
# [10] = target: GlcNAc(a1-3)Gal(b1-4)GlcNAc
# How it was run: as §1
# [11] = target: GlcNAc(a1-6)Gal(b1-4)GlcNAc
# How it was run: as §1
# [12] = target: GlcNAc(b1-2)Gal(b1-3)GalNAc
# How it was run: as §1
# [13] = target: GlcNAc(b1-2)Man(a1-3)[GlcNAc(b1-2)Man(a1-6)]Man(b1-4)GlcNAc(b1-4)GlcNAc
# How it was run: as §1
# [14] = target: GlcNAc(b1-3)Gal
# How it was run: as §1
# [15] = target: GlcNAc(b1-3)Gal(b1-3)GalNAc
# How it was run: as §1
# [16] = target: GlcNAc(b1-3)Gal(b1-4)Glc
# How it was run: as §1
# [17] = target: GlcNAc(b1-3)Gal(b1-4)GlcNAc
# How it was run: as §1
# [18] = target: GlcNAc(b1-3)Gal(b1-4)GlcNAc(b1-3)Gal(b1-4)GlcNAc
# How it was run: as §1
# [19] = target: GlcNAc(b1-3)GalNAc
# How it was run: as §1
# [20] = target: GlcNAc(b1-3)Man
# How it was run: as §1
# [21] = target: GlcNAc(b1-3)[GlcNAc(b1-4)][GlcNAc(b1-6)]GlcNAc
# How it was run: as §1
# [22] = target: GlcNAc(b1-3)[GlcNAc(b1-6)]Gal(b1-4)GlcNAc
# How it was run: as §1
binder,measurement,setting,value
"P-Selectin (Homo sapiens), P16109 (protein) MANCQIAILYQRFQRVVFGISQLLCFSALISELTNQKEVAAWTYHYSTKAYSWNISRKYCQNRYTDLVAIQNKNEIDYLNKVLPYYSSYYWIGIRKNNKTWTWVGTKKALTNEAENWADNEPNNKRNNEDCVEIYIKSPSAPGKWNDEHCLKKKHALCYTASCQDMSCSKQGECLETIGNYTCSCYPGFYGPECEYVRECGELELPQHVLMNCSHPLGNFSFNSQCSFHCTDGYQVNGPSKLECLASGIWTNKPPQCLAAQCPPLKIPERGNMTCLHSAKAFQHQSSCSFSCEEGFALVGPEVVQCTASGVWTAPAPVCKAVQCQHLEAPSEGTMDCVHPLTAFAYGSSCKFECQPGYRVRGLDMLRCIDSGHWSAPLPTCEAISCEPLESPVHGSMDCSPSLRAFQYDTNCSFRCAEGFMLRGADIVRCDNLGQWTAPAPVCQALQCQDLPVPNEARVNCSHPFGAFRYQSVCSFTCNEGLLLVGASVLQCLATGNWNSVPPECQAIPCTPLLSPQNGTMTCVQPLGSSSYKSTCQFICDEGYSLSGPERLDCTRSGRWTDSPPMCEAIKCPELFAPEQGSLDCSDTRGEFNVGSTCHFSCDNGFKLEGPNNVECTTSGRWSATPPTCKGIASLPTPGLQCPALTTPGQGTMYCRHHPGTFGFNTTCYFGCNAGFTLIGDSTLSCRPSGQWTAVTPACRAVKCSELHVNKPIAMNCSNLWGNFSYGSICSFHCLEGQLLNGSAQTACQENGHWSTTVPTCQAGPLTIQEASTSITAYKSEGESAEFSFPLNLGEESLQGELRWKAEKAPSSQSWITFSLKNQKVSVQKSTSNPKFQLSETLPLTLQIPQVSLQFAGSGNLTLTLDRGILYQEVNLVVMKVTQPDSNTLTCEVMGPTSPKMRLILKQENQEARVSRQEKVIQVQAPEAGVWQCLLSEGEEVKMDSKIQVLSKGLNSGGGSGGGTGGGDLAPQMLRELQETNAALQDVRELLRQQVKEITFLKNTVMECDACGLDRNLPPLAPLGPHPETLVKVKDAEDQLGARVGYIELDLNSGKILESFRPEERFPMMSTFKVLLCGAVLSRIDAGQEQLGRRIHYSQNDLVEYSPVTEKHLTDGMTVRELCSAAITMSDNTAANLLLTTIGGPKELTAFLHNMGDHVTRLDRWEPELNEAIPNDERDTTMPVAMATTLRKLLTGELLTLASRQQLIDWMEADKVAGPLLRSALPAGWFIADKSGAGERGSRGIIAALGPDGKPSRIVVIYTTGSQATMDERNRQIAEIGASLIKHWGPDYKDHDGDYKDHDIDYKDDDDKGPHHHHHH",glycan array binding signal (z-score),[1],-0.321
same,glycan array binding signal (z-score),[2],-0.407
same,glycan array binding signal (z-score),[3],-0.113
same,glycan array binding signal (z-score),[4],-0.324
same,glycan array binding signal (z-score),[5],-0.018
same,glycan array binding signal (z-score),[6],0.086
same,glycan array binding signal (z-score),[7],-0.125
same,glycan array binding signal (z-score),[8],-0.27
same,glycan array binding signal (z-score),[9],-0.001
same,glycan array binding signal (z-score),[10],-0.387
same,glycan array binding signal (z-score),[11],-0.375
same,glycan array binding signal (z-score),[12],-0.413
same,glycan array binding signal (z-score),[13],-0.237
same,glycan array binding signal (z-score),[14],-0.152
same,glycan array binding signal (z-score),[15],-0.379
same,glycan array binding signal (z-score),[16],1.07
same,glycan array binding signal (z-score),[17],-0.25
same,glycan array binding signal (z-score),[18],-0.251
same,glycan array binding signal (z-score),[19],-0.308
same,glycan array binding signal (z-score),[20],0.162
same,glycan array binding signal (z-score),[21],-0.391
same,glycan array binding signal (z-score),[22],-0.347
